# Assay results published in PubChem BioAssay (Tox21).
# Several values for one entry are separate records, joined by “and”; a condition that tells them apart may be missing. Equal values may be shown once. The shares of active, inactive and inconclusive entries below differ from those in the screen. A potency beside an inconclusive call is a rough fit, not a confirmed value. More than one record can exist for a structure, and the calls need not agree. Activity calls are given as the source filed them. Unless noted, calls come from the whole dose curve.
# Assays:
# [1] = qHTS assay to identify small molecule agonists of the endoplasmic reticulum stress response signaling pathway (AID 1159516; active = well fitted activation curve with a large enough effect in the signal ratio in the repeat runs, not every such curve was filed as active; inconclusive = weak or mixed curves, or effect the other way; the % refers to the signal ratio; for activation: % is set by controls: 0 for no effect and ±100 for the full control effect); conditions: ESRE-bla HeLa, ER stress beta-lactamase reporter, 5 h; activation: at 61 µM (top of the series) unless noted
# In short: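 Reporter HeLa cells (ESRE-beta-lactamase) underwent 5 hr compound incubation at 37 C and 5% CO2 in quantitative HTS format. Detection followed 2 hr of FRET substrate loading at room temperature.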
# [2] = qHTS assay to identify small molecule agonists of the endoplasmic reticulum stress response signaling pathway - cell viability counter screen (AID 1159517); note: nearly all actives have a fitted effect of over 50% in size
# In short: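 HeLa cells carrying an ESRE-driven beta-lactamase reporter receive compound for 5 hr at 37 C. Cell viability is then gauged with CellTiter-Glo by luminescence, 30 min at room temperature.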
# [3] = target: Retinoic acid receptor RXR-alpha (Homo sapiens) (UniProt P19793); test: qHTS assay to identify small molecule agonists of the RXR signaling pathway (AID 1159527); conditions: HEK293T RXRa-UAS-bla, beta-lactamase ratio, 16 h; note: nearly all actives have a fitted effect of over 35% in size; for activation: % is set by controls: 0 for no effect and ±100 for the full control effect
# UniProt P19793, sequence (P19793 whole entry, looked up): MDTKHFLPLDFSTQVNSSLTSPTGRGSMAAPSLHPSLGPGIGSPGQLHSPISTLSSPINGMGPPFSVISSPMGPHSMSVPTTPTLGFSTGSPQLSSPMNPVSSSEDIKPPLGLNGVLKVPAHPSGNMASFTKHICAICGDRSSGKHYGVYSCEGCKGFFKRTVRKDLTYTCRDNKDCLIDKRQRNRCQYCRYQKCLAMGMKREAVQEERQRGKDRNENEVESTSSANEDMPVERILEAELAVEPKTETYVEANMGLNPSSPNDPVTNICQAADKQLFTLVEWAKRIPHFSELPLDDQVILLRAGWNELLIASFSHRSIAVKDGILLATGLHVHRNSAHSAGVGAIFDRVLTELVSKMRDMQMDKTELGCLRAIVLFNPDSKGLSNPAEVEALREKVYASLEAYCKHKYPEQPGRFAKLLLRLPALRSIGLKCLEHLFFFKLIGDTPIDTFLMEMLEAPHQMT
# In short: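 GeneBLAzer RXR-alpha-UAS-bla HEK 293T cells in 2% charcoal-stripped FBS medium were exposed to compounds for 16 hr at 37 C in agonist mode. Beta-lactamase reporter read as 460/530 nm FRET ratio after 2 hr substrate loading.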
# [4] = qHTS assay to identify small molecule antagonists of the vitamin D receptor (VDR) signaling pathway - cell viability counter screen (AID 743225; active = well fitted curve in the direction sought with a large enough effect in the repeat runs; inconclusive = weak or mixed curves; inactive = no such curve, though single readings can be large; an effect the other way counts as inactive or inconclusive; note: nearly all actives have a fitted effect of over 50% in size; for viability change, negative = cytotoxic: % is set by controls: 0 for no effect and ±100 for the full control effect); conditions: VDR-bla HEK293T viability, CellTiter-Glo luminescence, 16 h; viability change, negative = cytotoxic: at 61 µM (top of the series) unless noted
# In short: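 VDR-UAS-bla HEK 293T cells were plated and incubated 4 h at 37C, then dosed with compound plus 3 nM (final) 1-alpha,25-dihydroxyvitamin D3 for 16 h. After the 2 h beta-lactamase read, viability in the same wells was read as CellTiter-Glo luminescence after 30 min at room temperature.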
# [5] = qHTS assay to identify small molecule agonists of the RXR signaling pathway - cell viability counter screen (AID 1159529; active = well fitted curve in the direction sought with a large enough effect in the repeat runs; inconclusive = weak or mixed curves; inactive = no such curve, though single readings can be large; an effect the other way counts as inactive or inconclusive; note: nearly all actives have a fitted effect of over 50% in size)
# In short: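 RXR-alpha-UAS-bla HEK 293T cells in medium with 2% charcoal-stripped FBS were pre-incubated 5 hr, then compound-treated 16 hr at 37 C. Viability was read by CellTiter-Glo luminescence in the same wells as the beta-lactamase assay, with tetraoctyl ammonium bromide as positive control.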
# [6] = qHTS assay to identify small molecule agonists of the AP-1 signaling pathway (AID 1159526); conditions: ME-180 (cervical carcinoma) AP-1-bla reporter, beta-lactamase FRET ratio, 5 h; activation: at 76.8 µM (top of the series) unless noted; for activation: % is set by controls: 0 for no effect and ±100 for the full control effect
# [7] = target: Nuclear receptor ROR-gamma (Homo sapiens) (UniProt P51449); test: qHTS assay to identify small molecule antagonists of the retinoid-related orphan receptor gamma (ROR-gamma) signaling pathway (AID 1159521; active = well fitted curve in the direction sought with a large enough effect in the repeat runs; inconclusive = weak or mixed curves; inactive = no such curve, though single readings can be large; an effect the other way counts as inactive or inconclusive; note: nearly all actives have a fitted effect of over 50% in size)
# In short: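 Tet-on ROR-gamma CHO cells with ROR response element-luciferase reporter; compounds added 2 hr before 1 uM doxycycline induction, then 16 hr at 37 C. Antagonism scored as decreased ONE-Glo luminescence.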
# [8] = qHTS assay to identify small molecule agonists of the AP-1 signaling pathway - cell viability counter screen (AID 1159525); note: nearly all actives have a fitted effect of over 55% in size
# In short: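 Luminescent ATP readout (Cell Titer Glo, 30 min RT), normalised to DMSO and tetra n-octyl ammonium bromide controls. Cells were ME-180 AP-1-bla in 0.5% dialyzed FBS Opti-MEM, with a 5 h, 37 °C compound exposure.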
# [9] = qHTS assay to identify small molecule antagonists of the retinoid-related orphan receptor gamma (ROR-gamma) signaling pathway - cell viability counter screen (AID 1159520; active = well fitted curve in the direction sought with a large enough effect in the repeat runs; inconclusive = weak or mixed curves; inactive = no such curve, though single readings can be large; an effect the other way counts as inactive or inconclusive; note: nearly all actives have a fitted effect of over 50% in size)
# In short: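 Cytotoxicity was read from cellular ATP (CellTiter-Glo luminescence) after 16 hr at 37 C with 1 uM doxycycline induction. The inducer was added 2 hr after compound transfer to Tet-on ROR gamma CHO cells.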
# [10] = activation: at 76.8 µM (top of the series) unless noted
# Potency is the fitted concentration of half-maximal effect; tags give direction and shape of the fitted curve or compound fluorescence and quenching.
compound,measurement,setting,value
CC(C)(C)C(=O)C(=O)O,Potency,[1],"inconclusive: 8.71 µM [rising, partial curve, poor fit]"
same,Potency,[2],"inconclusive: 12.3 µM [cytotoxic, full curve, poor fit]"
same,Potency,[3]; [10],inactive
Cc1ccccc1S,Potency,[1],"inconclusive: 44 µM [rising, single point]"
same,Potency,[2],"inconclusive: 27.8 µM [cytotoxic, partial curve, poor fit]"
same,activation,[3]; [10],inconclusive: -19.7% [at 35.3 µM]
CCCCOC(O)CC (stereo unspecified),Potency,[1],inactive
same,Potency,[2],inactive
same,activation,[3]; [10],inconclusive: 17.1%
CC(C)C=O,Potency,[1],"inconclusive: 0.446 µM [rising, full curve, poor fit]"
same,Potency,[2],"inconclusive: 5.62 µM [rising, full curve, poor fit]"
same,Potency,[3]; [10],"inconclusive: 50 µM [activator, partial curve, poor fit]"
Clc1ccnc(Cl)n1,Potency,[1],inactive
same,Potency,[2],"inconclusive: 5.57 µM [cytotoxic, single point]"
same,Potency,[3]; [10],inactive
CCCCCCCCN,Potency,[1],"inconclusive: 5.43 µM [falling, partial curve, poor fit]"
same,Potency,[2],"inconclusive: 0.0012 µM [rising, full curve, poor fit]"
same,Potency,[3]; [10],inactive
Nc1ccc(S(=O)(=O)NCc2ccccc2)cc1,Potency,[4],"inconclusive: 3.01 µM [rising, partial curve, poor fit]"
same,Potency,[1],inactive
same,Potency,[2],"inconclusive: 0.0017 µM [cytotoxic, full curve, poor fit]"
same,Potency,[3]; [10],inactive
CC(C)C(=O)OCCOc1ccccc1,Potency,[1],inactive
same,Potency,[2],"inconclusive: 0.977 µM [cytotoxic, full curve, poor fit]"
same,activation,[3]; [10],inconclusive: -10.2%
CN(Cc1cnc2nc(N)nc(N)c2n1)c1ccc(C(=O)N[C@@H](CCC(=O)O)C(=O)O)cc1,Potency,[4],"inconclusive: 30.9 nM [cytotoxic, full curve] and active: 213 nM"
same,activation,[1],inconclusive: 1.87%
same,Potency,[2],"inconclusive: 0.436 µM [cytotoxic, full curve]"
same,Potency,[5],"inconclusive: 245 nM [cytotoxic, full curve] and inconclusive: 301 nM [cytotoxic, full curve]"
CC(=O)c1ccc([N+](=O)[O-])cc1,Potency,[4],inactive
same,Potency,[1],"inconclusive: 61.7 µM [rising, single point]"
same,Potency,[2],"inconclusive: 0.777 µM [cytotoxic, single point]"
same,activation,[3]; [10],inconclusive: 25.8%
CN(CCOc1ccc(NS(C)(=O)=O)cc1)CCc1ccc(NS(C)(=O)=O)cc1,Potency,[1],inactive
same,Potency,[2],inactive
same,Potency,[3]; [10],inactive
Cc1cc(=O)c2c(O)c3c(O)cc(=O)c4c3c3c(cc(O)c1c23)C(C)(C)C=4O,Potency,[4],"inconclusive: 0.208 µM [cytotoxic, full curve]"
same,Potency,[1],"inconclusive: 2.93 µM [rising, partial curve, poor fit]"
same,Potency,[2],"inconclusive: 0.928 µM [cytotoxic, partial curve]"
same,Potency,[3]; [10],"inconclusive: 0.827 µM [rising, partial curve]"
same,Potency,[5],"inconclusive: 0.208 µM [cytotoxic, full curve]"
O=C(NS(=O)(=O)/C=C/c1ccccc1)c1ccc(F)cc1Cl,Potency,[1],inactive
same,Potency,[2],"inconclusive: 0.0174 µM [cytotoxic, full curve, poor fit]"
same,Potency,[3]; [10],"inconclusive: 6.92 µM [activator, partial curve, poor fit]"
OC[C@@H](O)[C@@H](O)[C@H](O)[C@H](O)CO,Potency,[1],"inconclusive: 10.7 µM [activator, single point]"
same,Potency,[2],inactive
same,Potency,[3]; [10],"inconclusive: 43.6 µM [activator, partial curve]"
CCCCCCCCOc1ccc(C(=O)O)cc1,Potency,[1],"inconclusive: 61 µM [rising, single point]"
same,Potency,[2],"inconclusive: 61 µM [cytotoxic, partial curve, poor fit]"
same,Potency,[3]; [10],active: 19.3 µM
CNCC(O)c1ccc(O)c(O)c1 (stereo unspecified),Potency,[1],inactive
same,Potency,[2],inactive
same,Potency,[3]; [10],inactive
CC(C=O)Cc1ccc(C(C)(C)C)cc1 (stereo unspecified),Potency,[1],inactive
same,Potency,[6],inactive
same,Potency,[3]; [10],"inconclusive: 49 µM [activator, partial curve]"
C1CN(SSN2CCOCC2)CCO1,Potency,[1],"inconclusive: 43.6 µM [rising, partial curve]"
same,Potency,[6],"inconclusive: 54.4 µM [activator] and inconclusive: 54.9 µM [activator, single point]"
same,Potency,[5],"inconclusive: 54.9 µM [cytotoxic, single point]"
Nc1cc(S(=O)(=O)O)cc2cc(S(=O)(=O)O)cc(O)c12,activation,[1],inconclusive: 8.06% and inconclusive: 3.88%
same,activation,[6],inconclusive: 10.2%
same,Potency,[3]; [10],active: 24.5 µM
O=C(O)c1cc(=O)[nH]c(=O)[nH]1,Potency,[1],"inconclusive: 7.56 µM [falling, partial curve, poor fit]"
same,Potency,[7],"inconclusive: 0.217 µM [inhibitor, single point]"
same,Potency,[8],inactive
same,Potency,[6],"inconclusive: 19 µM [activator, partial curve]"
O=C=NCCCCCCN=C=O,Potency,[1],inactive
same,Potency,[7],active: 26.7 µM
same,Potency,[6],"inconclusive: 38 µM [activator, partial curve]"
same,Potency,[3]; [10],inactive
same,Potency,[5],inactive
CO[C@]1(NC(=O)CSC(F)F)C(=O)N2C(C(=O)O)=C(CSc3nnnn3CCO)CO[C@H]21,Potency,[4],inactive
same,Potency,[1],"inconclusive: 0.477 µM [rising, full curve, poor fit]"
same,Potency,[2],"inconclusive: 6.74 µM [cytotoxic, partial curve, poor fit]"
CC(C)(C)C(=O)C1C(=O)c2ccccc2C1=O,activation,[1],inconclusive: -7.93%
same,Potency,[6],inactive
Oc1ccc(C(c2ccc(O)cc2)C(Cl)(Cl)Cl)cc1,Potency,[1],"inconclusive: 77.6 µM [falling, partial curve, poor fit]"
same,Potency,[9],inconclusive: 68.6 µM [cytotoxic]
same,Potency,[7],"inconclusive: 34.2 µM [inhibitor, partial curve, poor fit] and inconclusive: 61.1 µM [inhibitor, partial curve, poor fit]"
same,Potency,[8],"inconclusive: 54.9 µM [cytotoxic, single point]"
same,Potency,[6],inconclusive: 61.6 µM
same,Potency,[5],"inconclusive: 54.9 µM [cytotoxic, single point]"
CCOc1ccc2c(c1)C(C)=CC(C)(C)N2,Potency,[1],"inconclusive: 54.7 µM [activator] and inconclusive: 49 µM [activator, partial curve]"
same,Potency,[6],inconclusive: 48.7 µM and inconclusive: 49 µM [activator]
same,Potency,[3]; [10],"inconclusive: 24.4 µM [activator] and inconclusive: 17.4 µM [activator, partial curve]"
same,Potency,[5],"inconclusive: 54.9 µM [cytotoxic, partial curve]"
O=C1CCCCCCCCCCC1,Potency,[1],inactive
same,Potency,[7],inactive
same,Potency,[3]; [10],inactive
Clc1cccc(Cl)c1NC1=NCCN1,Potency,[1],inactive
same,Potency,[7],inactive
same,Potency,[6],inactive
same,activation,[3]; [10],inconclusive: -2.84%
CCOC(=O)C1OC1c1ccccc1 (stereo unspecified),activation,[1],inconclusive: 7.39% [at 78.8 µM]
same,Potency,[9],inactive
same,activation,[3]; [10],inconclusive: -25.2%
same,Potency,[5],"inconclusive: 49 µM [cytotoxic, partial curve, poor fit]"
C=C(C)C(=O)OCC(CC)(COC(=O)C(=C)C)COC(=O)C(=C)C,Potency,[1],"inconclusive: 3.95 µM [falling, single point] and inconclusive: 1.08 µM [falling, single point]"
same,Potency,[6],"inconclusive: 17.7 µM [falling, partial curve, poor fit]"
C=C(C)CC(C)(C)C,Potency,[1],inactive
same,Potency,[8],inactive
O=c1[nH]sc2cc(Cl)ccc12,Potency,[4],"inconclusive: 13.4 µM [cytotoxic, partial curve, poor fit]"
same,Potency,[1],"inconclusive: 3.38 µM [rising, full curve, poor fit]"
same,Potency,[7],"inconclusive: 13.3 µM [inhibitor, partial curve, poor fit]"
same,Potency,[8],"inconclusive: 26.8 µM [cytotoxic, single point]"
same,Potency,[6],"inconclusive: 12 µM [falling, partial curve]"
same,Potency,[3]; [10],inconclusive: 8.49 µM
O=C(O)CCc1nc(-c2ccccc2)c(-c2ccccc2)o1,Potency,[4],inactive
same,Potency,[1],"inconclusive: 7.56 µM [rising, partial curve, poor fit]"
same,Potency,[2],"inconclusive: 0.535 µM [cytotoxic, full curve, poor fit]"
CC1(C)[C@@H](O[C@H]2O[C@H](C(=O)O)[C@@H](O)[C@H](O)[C@H]2O[C@@H]2O[C@H](C(=O)O)[C@@H](O)[C@H](O)[C@H]2O)CC[C@]2(C)[C@H]3C(=O)C=C4[C@@H]5C[C@@](C)(C(=O)O)CC[C@]5(C)CC[C@@]4(C)[C@]3(C)CC[C@@H]12,Potency,[1],inactive
same,Potency,[8],"inconclusive: 0.0009 µM [rising, full curve, poor fit]"
OC[C@@H](O)[C@@H](O)[C@H](O)[C@@H](O)CO,Potency,[4],inactive
same,activation,[1],inconclusive: 5.64% [at 78.8 µM]
same,Potency,[9],inactive
same,Potency,[7],"inconclusive: 5.22 µM [inhibitor, single point]"
same,activation,[3]; [10],inconclusive: 16.5%
same,activation,[3]; at 76.8 µM (top of the series),inactive: 8.6%
N[C@@H](Cc1cc(I)c(Oc2cc(I)c(O)c(I)c2)c(I)c1)C(=O)O,Potency,[4],inactive
same,Potency,[1],inactive
same,activation,[6],inconclusive: 16.1% [at 35.3 µM]
[Na+],Potency,[1],inactive
same,Potency,[6],inactive
CN1CCC[C@H]1c1cccnc1,Potency,[4],"inconclusive: 21.7 µM [rising, partial curve, poor fit]"
same,Potency,[1],inactive
same,Potency,[8],inactive
same,Potency,[6],inactive
same,Potency,[5],inactive
CN(C(=O)CN(CCO)CC(=O)N(C)C(C)(C)Cc1ccccc1)C(C)(C)Cc1ccccc1,Potency,[4],"inconclusive: 30.1 µM [cytotoxic, single point]"
same,Potency,[1],"inconclusive: 26.8 µM [falling, single point]"
same,Potency,[9],active: 29.8 µM
same,Potency,[7],active: 26.6 µM
same,Potency,[8],"inconclusive: 23.9 µM [cytotoxic, single point]"
same,Potency,[6],"inconclusive: 16.9 µM [falling, partial curve]"
same,Potency,[3]; [10],"inconclusive: 23.9 µM [inhibitor, partial curve, poor fit]"
same,Potency,[5],"inconclusive: 9.52 µM [cytotoxic, partial curve]"
